Test results taken from PubChem BioAssay AID1745853 (National Center for Advancing Translational Sciences (NCATS), 2022).
Values joined by “and” are separate entries in the source; they are usually repeats but may differ in a detail not shown here. Equal entries are not always repeated. The list shows a part of the results. The main result of the screen is listed elsewhere. These columns were measured beside it and carry no call.

Experiments:
Experiment in all cases: Primary Screen for Target Class Profiling of Small Molecule Inhibitors of Methyltransferases
[1] = molecular target: Glycine N-methyltransferase (Homo sapiens) (UniProt Q14749); settings: purified enzyme, MTase-Glo SAH luminescence; measured here: GNMT inhibition; at 40 µM; stronger effect = lower value
Procedure, shortened: (§1)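 Each enzyme was assayed with SAM and its substrate. SAH formation detected by MTase-Glo luminescence; single-point 40 uM screen[…].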

[2] = molecular target: Guanidinoacetate N-methyltransferase (Homo sapiens) (UniProt Q14353); settings: purified enzyme, MTase-Glo SAH luminescence; measured here: GAMT inhibition; at 40 µM; stronger effect = lower value
Procedure, shortened: as §1

[3] = molecular target: Histamine N-methyltransferase (Homo sapiens) (UniProt P50135); settings: purified enzyme, MTase-Glo SAH luminescence; measured here: HNMT inhibition; at 40 µM; stronger effect = lower value
Procedure, shortened: as §1

[4] = molecular target: Nicotinamide N-methyltransferase (Homo sapiens) (UniProt P40261); settings: purified enzyme, MTase-Glo SAH luminescence; measured here: NNMT inhibition; at 40 µM; stronger effect = lower value
Procedure, shortened: as §1

[5] = molecular target: Phenylethanolamine N-methyltransferase (Homo sapiens) (UniProt P11086); settings: purified enzyme, MTase-Glo SAH luminescence; measured here: PNMT inhibition; at 40 µM; stronger effect = lower value
Procedure, shortened: as §1
% is set by controls: 0 for no effect and ±100 for the full control effect.

| SMILES | activity change, negative = inhibition [1] | activity change, negative = inhibition [2] | activity change, negative = inhibition [3] | activity change, negative = inhibition [4] | activity change, negative = inhibition [5] |
| --- | --- | --- | --- | --- | --- |
| C[C@@H]1CN(c2nc(-c3ccccc3)no2)CC[C@@]1(O)C1CCC1 | -8.97% | -7.22% | -7.84% | -9.95% | -11.2% |
| O=C(CCc1ccsc1)N1CCC2(CCCN(Cc3cccnc3)C2=O)C1 (stereo not given) | -7.6% | -9.28% | -4.43% | -11.1% | -6.04% |
| O=C(Nc1ccn(Cc2c(F)cccc2C(F)(F)F)n1)c1c(F)cccc1F | -1.01% | -2.04% | 11.3% | -12.8% | 1.07% |
| C=C1CCC2C(C)(C(=O)O)CCCC2(C)C1CC/C(=C\CO)CO (stereo not given) | -0.433% | 3.43% | 8.25% | -19% | 2.9% |
| O=c1cc(N2CCOCC2)oc2c(NCc3ccc(F)cc3)nccc12 | -6.24% | -6.43% | -2.04% | -23.4% | -6.9% |
| CCOc1ccccc1CN1C(=O)c2c(C(=O)OC)ncn2CC1(C)C(=O)NCc1ccccc1 (stereo not given) | 1.02% | 0% | -5.57% | 3.74% | 0.954% |
| O=C(NC1CC1)[C@@H]1C[C@H](Oc2ccccc2)CN1C(=O)C1CCC1 | -3.31% | -7.36% | -1.2% | -6.94% | -3.46% |
| CC(C)C1=CC2C(CC[C@]2(C)O)[C@](C)(O)CC1 (stereo not given in full) | 4.38% | 4.95% | 13.6% | -8.23% | 5.36% |
| C[C@@H]1CCC2C(C)(C)[C@H](O)CC[C@]2(C)[C@@]12Cc1c(O)cc3c(c1O2)CN(CCO)C3=O (stereo not given in full) | 0% | 7.14% | -21.5% | -9.43% | 3.87% |
| CC1(O)CC(c2nc(-c3ccc4ccc(-c5ccccc5)nc4c3)c3c(N)nccn23)C1 (stereo not given) | -5.8% | 6.11% | -40.6% | -11.2% | -0.492% |
| Cc1ccc2c(c1)c(-n1cccc1)c1n2CC(C)(C(=O)NC2CCC(C)CC2)N(Cc2ccccc2Cl)C1=O (stereo not given) | 0.258% | 0% | 3.81% | 2.3% | 0.361% |
| c1ncc(CN2CCn3c(nnc3C3CCCNC3)C2)s1 (stereo not given) | -3.95% | -6.9% | -1.33% | -11.2% | -7.76% |
| FC(F)(F)c1cc(-c2ncn(/C=C\c3nnco3)n2)cc(C(F)(F)F)c1 | 4.49% | 11.8% | 5.86% | -12.3% | 1.77% |
| Cc1cnc(CCNC(=O)C2CC=CC2)n1C1CC1 | 0.97% | 4.43% | -3.96% | -2.08% | 3.57% |
| CCOc1ccc(CCN2C(=O)c3cc4ccc(OC)cc4n3CC2(C)C(=O)NC2CCCC2)cc1 (stereo not given) | 2.54% | 0% | 2.64% | 4.33% | -1.09% |
| CC(C)c1cc2c(c(O)c1O)[C@@]13CCCC(C)(C)[C@@H]1[C@H](OC3=O)C2=O | -6.07% | -6.81% | 0.349% | -23.1% | -13.4% |
| CCCn1c(=O)c2cc(Cl)ccc2n2c(SCC(=O)NCc3ccc(C)cc3)nnc12 | 3.31% | 3.96% | 10.6% | 5.24% | 4.33% |
| CC1C2=CC(=O)OC2(O)CC2C1C(O)CC1C(C)(CO)CCCC21C (stereo not given) | 1.56% | 5.23% | 4.81% | -7.97% | -2.42% |
| CC(C)Cn1c(=O)c2ccc(C(=O)NC3CCCC3)cc2n2c(=O)n(Cc3cccc(F)c3)nc12 | 3.44% | 0% | 7.34% | 0.341% | 4.42% |
| Cc1ccc(CCNC(=O)c2cc3n(n2)CC(C)(C(=O)NC2CCCCC2)N(C)C3=O)cc1 (stereo not given) | 2.14% | 2.75% | 1.75% | -2.8% | -0.981% |

| SMILES | activity change, negative = inhibition [1] | activity change, negative = inhibition [2] | activity change, negative = inhibition [3] | activity change, negative = inhibition [4] | activity change, negative = inhibition [5] |
| --- | --- | --- | --- | --- | --- |
| CCOC(=O)Cc1ccc(NC(=O)N2CCn3cccc3C2C(C)C)cc1 (stereo not given) | 15.5% | 2.06% | 10.2% | 6.81% | 11.2% |
| CCOc1ccc(N2C(=O)c3cc(C(=O)OC)nn3CC2(C)C(=O)NC2CCCCC2)cc1 (stereo not given) | -0.907% | 2.87% | 6.54% | 2.28% | 1.04% |
| Cc1ccc(C)c(S(=O)(=O)n2cnc3ccccc32)c1 | 7.69% | 6.98% | 5.97% | -5.84% | 4.81% |
| CCN(Cc1ccccc1)C(=O)CCC[C@H]1NC[C@@H]2CC1CN(Cc1ccccc1)C2 | -6.4% | 0.07% | -44.8% | -18.9% | 10.4% |
| CC1CCC(NC(=O)CCc2nnc3n(CCc4ccccc4)c(=O)c4ccccc4n23)CC1 (stereo not given) | -6.41% | 0% | 4.14% | 7.6% | -3.34% |
| CC1(C(=O)NC2CCCCC2)Cn2c(cc3occc32)C(=O)N1CCN1CCCCCC1 (stereo not given) | 2.84% | 0% | -7.29% | 3.88% | 0.227% |
| CCCCc1ccc(C(=O)Nc2cc(-c3ccc(Cl)cc3)nn2-c2ccc(Cl)cc2)cc1 | -1.01% | -38.3% | -5.41% | -39.2% | -18.5% |
| CCc1cccc(N2C(=O)CSc3c(c4ccccc4n3C)C2C(=O)NCc2ccc(F)cc2)c1 (stereo not given) | -1.71% | 4.07% | 10.8% | 5.58% | -4.1% |
| CCOC(=O)c1cc(Nc2ccccc2)c2cc(Cl)ccc2n1 | -14.2% | 0.995% | -2.27% | -1.92% | -7.12% |
| Cc1c(Cl)cccc1N1C(=O)c2cc3occc3n2CC1(C)C(=O)NC1CCCCCC1 (stereo not given) | -8.01% | 1.92% | -5.95% | -7.08% | -5.69% |
| O=C(Nc1ccc2c(c1)CCN(Cc1ncn[nH]1)C2)c1ccccc1-c1ccc(C(F)(F)F)cc1 | 6.59% and -6.12% | 13.2% and 11.2% | 5.46% and -2.13% | -4.47% and -16.5% | 3.33% and -8.47% |
| NCc1ccc(Oc2ccc(F)c(Cl)c2)cc1 | -6.75% | 0.767% | -2.36% | -20.6% | -27.9% |
| N#Cc1cc([N+](=O)[O-])c2sc(C(N)=O)[n+]([O-])c2c1 | -8.68% | 10.2% | 3.63% | -4.08% | 3.92% |
| CC1(C(=O)NC2CCCCCCC2)Cn2c(cc3sccc32)C(=O)N1CCc1ccc(Cl)cc1 (stereo not given) | -2.66% | 1.67% | -0.753% | 0.884% | -4.23% |
| Cc1noc(C)c1C(=O)N1CCN(S(=O)(=O)c2ccc(Cl)nc2)C(=O)C1 | -6.1% | -2.34% | -1.03% | 0.174% | 3.85% |
| CC(CN1C(=O)c2cc3occc3n2CC1(C)C(=O)NC1CCCCCC1)c1ccccc1 (stereo not given) | 2.4% | 0.684% | 8.17% | -2.69% | -0.748% |
| Cc1[nH]c(-c2ccccc2)nc1C(=O)N1CCCC[C@H](N(C)C)C1 | 0.748% | -2.07% | -14.2% | -0.963% | -12.5% |
| CC(C)CN(CC1CN(C(=O)c2ccccc2)CCO1)C(=O)c1cccc2ccccc12 (stereo not given) | -4.06% | -1.25% | 1.67% | -4.62% | -4.65% |
| CCCC1c2cccn2CCN1C(=O)NCC1CCC(C(=O)OCC)CC1 (stereo not given) | -4.25% | 1.27% | -10.9% | -3.3% | -1.14% |
